Reference: paper PMC5467231
Results are given in words; binding and its absence hold for the method and conditions named. For some of these results: Binding seen in cells or lysates may run through a third protein. Some results given as binding are weak or reduced against the parent protein; the word gives no strength. For some of these results: Where a sequence is shown, tags or fusion partners need not be part of it.

The chains behind the UniProt entries cited, without tags or fusion partners. Where a name states a change or a piece, a line headed by the entry shows the natural chain unless it says otherwise. Residues count along the entry.
UniProt P11362: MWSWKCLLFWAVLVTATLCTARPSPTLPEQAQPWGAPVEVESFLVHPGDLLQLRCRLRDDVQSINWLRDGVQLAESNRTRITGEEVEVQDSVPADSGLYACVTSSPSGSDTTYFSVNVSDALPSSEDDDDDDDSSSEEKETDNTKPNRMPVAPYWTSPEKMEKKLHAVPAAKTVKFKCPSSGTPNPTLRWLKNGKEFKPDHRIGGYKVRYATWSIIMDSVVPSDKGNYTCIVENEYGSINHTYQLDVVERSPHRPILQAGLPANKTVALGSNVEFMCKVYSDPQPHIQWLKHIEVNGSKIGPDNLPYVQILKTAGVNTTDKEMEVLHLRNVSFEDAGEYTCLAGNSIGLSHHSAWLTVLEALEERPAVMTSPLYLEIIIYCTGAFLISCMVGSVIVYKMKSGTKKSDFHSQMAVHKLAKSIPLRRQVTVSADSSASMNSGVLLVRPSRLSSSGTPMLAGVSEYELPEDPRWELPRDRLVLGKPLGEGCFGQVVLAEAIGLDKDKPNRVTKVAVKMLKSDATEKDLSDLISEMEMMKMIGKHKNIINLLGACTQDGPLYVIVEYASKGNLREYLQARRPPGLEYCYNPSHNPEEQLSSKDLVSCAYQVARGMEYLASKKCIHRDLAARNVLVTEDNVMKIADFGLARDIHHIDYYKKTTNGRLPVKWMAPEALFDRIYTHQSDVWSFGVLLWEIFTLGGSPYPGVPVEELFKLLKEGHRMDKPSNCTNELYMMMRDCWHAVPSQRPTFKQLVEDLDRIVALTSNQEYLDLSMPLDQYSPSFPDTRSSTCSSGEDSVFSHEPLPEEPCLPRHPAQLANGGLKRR
recombinant human FGFR1/Fc chimera (Sino Biological 10616-H03H): residues 22-376 of P11362
UniProt P21802: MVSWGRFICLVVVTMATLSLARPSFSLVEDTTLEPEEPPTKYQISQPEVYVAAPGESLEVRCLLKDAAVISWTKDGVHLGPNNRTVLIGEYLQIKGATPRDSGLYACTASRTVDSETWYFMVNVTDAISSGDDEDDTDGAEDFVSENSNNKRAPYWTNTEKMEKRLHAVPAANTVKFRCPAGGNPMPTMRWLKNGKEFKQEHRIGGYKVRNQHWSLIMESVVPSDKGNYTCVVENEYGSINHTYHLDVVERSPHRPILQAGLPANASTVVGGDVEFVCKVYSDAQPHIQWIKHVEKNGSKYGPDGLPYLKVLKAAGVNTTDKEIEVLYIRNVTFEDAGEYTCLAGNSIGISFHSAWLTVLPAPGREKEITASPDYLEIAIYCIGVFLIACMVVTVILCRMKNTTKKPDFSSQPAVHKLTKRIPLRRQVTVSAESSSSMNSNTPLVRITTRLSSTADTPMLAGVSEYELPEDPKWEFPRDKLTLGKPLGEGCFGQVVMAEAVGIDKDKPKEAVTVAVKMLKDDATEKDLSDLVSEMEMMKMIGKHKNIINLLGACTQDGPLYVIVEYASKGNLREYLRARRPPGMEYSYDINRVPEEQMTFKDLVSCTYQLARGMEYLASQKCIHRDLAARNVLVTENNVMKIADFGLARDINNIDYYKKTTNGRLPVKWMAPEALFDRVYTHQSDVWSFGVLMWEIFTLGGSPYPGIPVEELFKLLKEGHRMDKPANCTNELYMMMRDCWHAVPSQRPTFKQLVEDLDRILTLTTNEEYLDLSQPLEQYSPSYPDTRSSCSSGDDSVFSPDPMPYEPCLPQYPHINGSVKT
recombinant human FGFR2/Fc chimera (Sino Biological 10824-H03H): residues 22-377 of P21802
UniProt P22455, residues 22-802: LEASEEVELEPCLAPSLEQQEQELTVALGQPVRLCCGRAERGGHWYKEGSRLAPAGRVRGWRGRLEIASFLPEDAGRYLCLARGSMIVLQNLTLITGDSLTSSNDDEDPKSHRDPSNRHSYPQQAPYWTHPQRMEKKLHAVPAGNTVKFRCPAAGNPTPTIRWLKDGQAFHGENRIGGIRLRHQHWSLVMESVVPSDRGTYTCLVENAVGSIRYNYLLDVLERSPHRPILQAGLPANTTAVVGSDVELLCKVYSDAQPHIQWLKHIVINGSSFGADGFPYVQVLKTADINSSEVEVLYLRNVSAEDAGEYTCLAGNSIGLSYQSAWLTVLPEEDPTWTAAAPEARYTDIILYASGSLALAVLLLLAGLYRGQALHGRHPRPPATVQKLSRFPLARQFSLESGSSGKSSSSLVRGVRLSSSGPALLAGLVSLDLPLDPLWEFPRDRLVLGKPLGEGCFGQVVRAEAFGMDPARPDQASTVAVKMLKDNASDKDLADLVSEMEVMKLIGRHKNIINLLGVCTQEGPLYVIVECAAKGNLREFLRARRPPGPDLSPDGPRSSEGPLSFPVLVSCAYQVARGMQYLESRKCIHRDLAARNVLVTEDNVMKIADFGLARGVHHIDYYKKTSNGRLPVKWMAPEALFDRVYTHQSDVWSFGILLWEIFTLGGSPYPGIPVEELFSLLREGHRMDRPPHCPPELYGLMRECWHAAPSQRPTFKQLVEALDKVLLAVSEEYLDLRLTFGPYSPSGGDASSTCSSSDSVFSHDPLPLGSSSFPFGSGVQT
UniProt P22607, residues 23-806: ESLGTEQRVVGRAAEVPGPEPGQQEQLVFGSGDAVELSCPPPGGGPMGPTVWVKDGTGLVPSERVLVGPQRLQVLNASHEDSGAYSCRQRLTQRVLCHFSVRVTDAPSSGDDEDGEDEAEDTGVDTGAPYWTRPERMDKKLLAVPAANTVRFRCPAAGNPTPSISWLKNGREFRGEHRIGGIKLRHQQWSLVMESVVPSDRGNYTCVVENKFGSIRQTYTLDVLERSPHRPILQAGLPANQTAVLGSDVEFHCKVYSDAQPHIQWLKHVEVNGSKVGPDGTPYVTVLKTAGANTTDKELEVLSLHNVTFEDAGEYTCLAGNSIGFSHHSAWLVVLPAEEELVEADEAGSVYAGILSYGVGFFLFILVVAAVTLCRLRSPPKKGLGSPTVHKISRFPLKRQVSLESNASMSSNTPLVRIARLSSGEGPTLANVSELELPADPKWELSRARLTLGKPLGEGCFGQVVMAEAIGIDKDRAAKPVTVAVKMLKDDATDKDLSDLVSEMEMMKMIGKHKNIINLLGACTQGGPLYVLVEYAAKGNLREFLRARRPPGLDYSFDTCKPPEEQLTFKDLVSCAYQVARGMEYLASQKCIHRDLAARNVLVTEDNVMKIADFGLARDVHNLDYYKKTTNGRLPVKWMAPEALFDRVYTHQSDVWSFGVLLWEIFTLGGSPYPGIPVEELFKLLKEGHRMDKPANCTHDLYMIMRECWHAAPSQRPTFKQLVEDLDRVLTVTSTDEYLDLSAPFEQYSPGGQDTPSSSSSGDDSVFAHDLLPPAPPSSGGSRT
UniProt P09038, residues 143-288: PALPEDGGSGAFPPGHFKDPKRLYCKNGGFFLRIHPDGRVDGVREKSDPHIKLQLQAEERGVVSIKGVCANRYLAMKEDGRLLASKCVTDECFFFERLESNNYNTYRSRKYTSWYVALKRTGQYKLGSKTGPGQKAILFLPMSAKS

Tests used:
[1] = biological target: T1, melanoma cell adhesion molecule (MCAM), endogenous in HEK293 cells (human (endogenous in HEK293)) (UniProt P43121); assay: co-IP; HEK293 lysate (1% NP-40, 100 mM NaCl, pH 7.5); precipitated with anti-MCAM antibody AA1 and Protein G PLUS-Agarose at 4 °C, washed with 1 M NaCl, 1% NP-40; immunoblot (precipitating antibody of the FGFR1/FGF4 co-IP not told)
T1 sequence: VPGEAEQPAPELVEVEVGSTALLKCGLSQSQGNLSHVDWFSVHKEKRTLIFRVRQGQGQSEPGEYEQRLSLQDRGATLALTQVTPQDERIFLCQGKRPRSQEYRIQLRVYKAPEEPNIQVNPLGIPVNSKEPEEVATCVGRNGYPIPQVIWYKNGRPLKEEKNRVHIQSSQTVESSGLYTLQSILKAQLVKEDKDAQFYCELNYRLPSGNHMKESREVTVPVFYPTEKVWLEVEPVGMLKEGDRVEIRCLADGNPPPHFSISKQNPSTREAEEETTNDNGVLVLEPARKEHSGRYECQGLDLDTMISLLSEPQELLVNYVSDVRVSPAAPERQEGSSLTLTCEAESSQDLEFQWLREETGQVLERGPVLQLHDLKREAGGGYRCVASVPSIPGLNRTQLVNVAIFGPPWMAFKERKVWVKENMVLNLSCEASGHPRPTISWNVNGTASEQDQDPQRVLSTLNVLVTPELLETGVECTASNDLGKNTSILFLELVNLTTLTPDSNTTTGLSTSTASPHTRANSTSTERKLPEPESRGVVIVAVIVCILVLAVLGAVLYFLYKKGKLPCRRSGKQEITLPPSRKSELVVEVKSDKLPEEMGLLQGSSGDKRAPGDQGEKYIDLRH

[2] = biological target: recombinant human FGFR1/Fc chimera (Sino Biological 10616-H03H) (human) (UniProt P11362); assay: SPR; Biacore T100, CM5 chip, room temperature, 1x PBS with 0.05% Tween 20; MCAM/Fc, FGFR1/Fc, FGFR2/Fc or IgG1 Fc immobilised by amine coupling, soluble FGF2, FGF4 or FGF8 flowed over; 1:1 binding model; both purified
[3] = biological target: recombinant human FGFR2/Fc chimera (Sino Biological 10824-H03H) (human) (UniProt P21802); assay: as above
[4] = biological target: T2, recombinant human MCAM/Fc chimera (Sino Biological 10115-H02H) (human) (UniProt P43121); assay: as above
T2 sequence: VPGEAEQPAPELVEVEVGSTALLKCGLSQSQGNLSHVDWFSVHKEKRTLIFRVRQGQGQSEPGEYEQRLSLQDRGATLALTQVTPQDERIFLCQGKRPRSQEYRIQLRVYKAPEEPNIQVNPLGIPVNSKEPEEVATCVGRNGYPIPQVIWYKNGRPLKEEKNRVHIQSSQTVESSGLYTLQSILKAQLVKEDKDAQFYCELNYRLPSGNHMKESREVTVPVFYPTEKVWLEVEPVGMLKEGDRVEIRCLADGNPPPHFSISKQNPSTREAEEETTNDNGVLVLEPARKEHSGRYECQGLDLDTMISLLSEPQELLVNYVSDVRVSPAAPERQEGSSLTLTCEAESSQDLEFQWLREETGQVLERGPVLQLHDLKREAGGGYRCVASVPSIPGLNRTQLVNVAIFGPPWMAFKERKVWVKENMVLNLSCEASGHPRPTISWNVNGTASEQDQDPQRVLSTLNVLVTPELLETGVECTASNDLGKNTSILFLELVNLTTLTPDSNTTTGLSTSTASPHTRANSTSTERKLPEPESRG

Row | binding [1] | binding [2] | binding [3] | binding [4] | Substance
1 | no binding | – | – | – | FGFR4, endogenous in HEK293 cells (from UniProt P22455 22-802) (receptor)
2 | no binding | – | – | – | FGFR3, endogenous in HEK293 cells (from UniProt P22607 23-806) (receptor)
3 | – | binds | binds | no binding | recombinant human FGF2 (Sino Biological 10014-HNAE) (from UniProt P09038 143-288) (ligand)
4 | no binding | – | – | – | FGFR1, endogenous in HEK293 cells (from UniProt P11362 22-822) (receptor)
5 | no binding | – | – | – | FGFR2, endogenous in HEK293 cells (from UniProt P21802 22-821) (receptor)
